To fix the notation:
B1: TPR 5TU (parent)
chain: GGAUCUUCUCGAUCUAACAAAAAAGACAAAUCUGCCACAAAGCUUGAGAGCAUCUUCGGAUGCAGAGGCGGCAGCCUUCGGUGGCGCGAUAGCGCCAACGUUCUCAACUAUGACACGCAAAACGCGUGCUCCGUUGAAUGGAGUUUAUCAUG

This sample is rich in variants without activity.

In the data set the parent is B1. Nature of the data set: polymerase ribozyme fitness, log enrichment relative to wild type (log ratio); higher = more active; in vitro selection for triplet polymerase activity. The gist of the method:
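Mutant libraries of both subunits of a heterodimeric triplet polymerase ribozyme were PCR-built, transcribed, and selected once in triplicate, with frozen incubation at −7 °C and capture of gel-excised extended constructs on streptavidin beads before RT-PCR. Illumina sequencing of input and output libraries was filtered to genotypes with ≥10 input reads and ≥1 read per output. Fitness is the logarithm of genotype enrichment over wild-type enrichment, using inverse-variance-weighted replicate averages. The logarithm is base 2.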
On to U4G U33C G67U C69A C93U, for which the “polymerase ribozyme fitness (log ratio)” value was at most -4.2.
Turning to C5G G11U A19C C96U A113G G124A, the “polymerase ribozyme fitness (log ratio)” value is at most -4.2.
On to C5G C10U A23C G83A C99G U127C, for which the “polymerase ribozyme fitness (log ratio)” value is at most -4.2.
In the case of C5G G62U A66G G68C G92A U104G G140U, the “polymerase ribozyme fitness (log ratio)” value was at most -4.2.
In the case of C5G A64G G83U C118A A138G, the “polymerase ribozyme fitness (log ratio)” value was at most -4.2.
Turning to C5G C32U U55G G74U G83C A91G U145G A150U, the “polymerase ribozyme fitness (log ratio)” value was at most -4.2.
Then C5G C93A, with -2.55; and C5A A22U C43U C87G C95U C116G, with at most -4.2; and C5G A17G G34C C36U G59A C85U A91C A97C U109C, with at most -4.2.
Regarding C5A C57U G59C C96G U101G, the “polymerase ribozyme fitness (log ratio)” value is -0.41.
C5G C105U: the “polymerase ribozyme fitness (log ratio)” value is -0.0507.
Consider C5G A21U C76G G92U C96A A119C A138U, for which the “polymerase ribozyme fitness (log ratio)” value was at most -4.2.
Take U4G A26C C35U U55A C85A: the “polymerase ribozyme fitness (log ratio)” value is at most -4.2.
Under U4G U7C C10A C14G U82A C95A A98G U102C C103G C118U A137C stands at most -4.2; under C5G A16G A21U C93U U101G A110C C116U G124C, at most -4.2; under C5G C38G G86C G117U G143A, at most -4.2.
C5G A37C G86U A120U U146G: the “polymerase ribozyme fitness (log ratio)” value was at most -4.2.
Under U4G A26U C38A U55A G94A A119G G128U U134A stands at most -4.2; under C5G A29U C54U G59C G86U C132G, at most -4.2.
Consider C5G C27U U53G C54G A142G, for which the “polymerase ribozyme fitness (log ratio)” value is at most -4.2.
Then U4G G83U A107C U130A, with at most -4.2; and C5G C18U C79A C87U U145A, with at most -4.2.
Then C5A C27U U33G C79A, with at most -4.2.
On to C5A A17U U56A U127A, for which the “polymerase ribozyme fitness (log ratio)” value was -4.16.
For the variant C5G C10A G11A A30U A49C C93U G136A, the “polymerase ribozyme fitness (log ratio)” value was at most -4.2.
As to U4G A40G G46C A47C C87G U146G, the “polymerase ribozyme fitness (log ratio)” value is at most -4.2.
Consider C5G A47U C85U C87G, for which the “polymerase ribozyme fitness (log ratio)” value is at most -4.2.
C5A G68C G80C C85G: the “polymerase ribozyme fitness (log ratio)” value was at most -4.2.
As for C5G C14G C54A U61G G68C G83U A115G U127A A138U, the “polymerase ribozyme fitness (log ratio)” value is at most -4.2.
U4C U7G U15G C18U A37C C95U U145C: the “polymerase ribozyme fitness (log ratio)” value is at most -4.2.
For the variant C5G A60U G74A C99A A138G A142G, the “polymerase ribozyme fitness (log ratio)” value was at most -4.2.
In the case of U4G A52G G70A A107C G126A, the “polymerase ribozyme fitness (log ratio)” value was at most -4.2.
On to U4G C75G A91U G92A U101G C125U, for which the “polymerase ribozyme fitness (log ratio)” value is at most -4.2.
Then C5G A30C A60C C96A C103A C131G, with at most -4.2.
With C5G C10G G92A C123U A138C G143A, the “polymerase ribozyme fitness (log ratio)” value is at most -4.2.
Under U4G A41U G59A C85U U127G stands at most -4.2; under U4G C43G U44A C85U C103A, at most -4.2; under C5G C54U A91U C93U G117A, at most -4.2.
For C5G A26C C27A A40C A66C, the “polymerase ribozyme fitness (log ratio)” value was at most -4.2.
Turning to C5A A20U C43G A64C G88C, the “polymerase ribozyme fitness (log ratio)” value is at most -4.2.
Under C5A A26U C99A C125G stands at most -4.2; under C5A C10A C93A C105A, at most -4.2.
